{"source": "PubChem BioAssay AID485294", "about": "(National Center for Advancing Translational Sciences (NCATS), 2010)", "note": "The campaign covered roughly 370,000 compounds. About 150 (0.041%) were called active. The shares of active, inactive and inconclusive entries below differ from those in the screen. The call rests on the fitted dose curve; in most records, active means well fitted inhibition curve with a large enough effect; inconclusive means small, poorly fitted or top-dose-only effect; inactive means flat fitted curve, though single readings scatter. Potencies of inconclusive entries are left out as doubtful fits. Potency means the concentration at half of the fitted maximal effect; tags describe the fitted curve by direction and shape.", "data": [{"target": "Beta-lactamase (Escherichia coli (strain K12)) (UniProt P00811)", "sequence (P00811 whole entry, looked up)": "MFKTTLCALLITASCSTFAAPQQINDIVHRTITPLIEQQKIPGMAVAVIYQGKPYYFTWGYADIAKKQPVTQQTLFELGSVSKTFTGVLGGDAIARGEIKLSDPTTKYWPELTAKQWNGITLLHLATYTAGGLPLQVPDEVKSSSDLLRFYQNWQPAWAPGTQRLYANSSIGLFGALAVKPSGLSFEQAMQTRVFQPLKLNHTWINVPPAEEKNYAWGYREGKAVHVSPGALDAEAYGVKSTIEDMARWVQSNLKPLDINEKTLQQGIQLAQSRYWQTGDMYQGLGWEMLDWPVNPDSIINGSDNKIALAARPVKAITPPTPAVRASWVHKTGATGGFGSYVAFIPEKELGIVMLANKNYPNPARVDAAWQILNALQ", "experiment": "qHTS Inhibitors of AmpC Beta-Lactamase (assay with detergent); further: nearly all actives have a fitted effect of over 25% in size", "conditions": "AmpC hydrolysis of nitrocefin, absorbance 480 nm, 0.01% Triton; series mostly up to 114 µM", "method": "NIH Molecular Libraries Probe Production Network [MLPCN] NIH Chemical Genomics Center [NCGC] Assay Provider: Professor Brian Shoichet, UCSF Assay Overview: This aggregation profiling approach exploits the sensitivity of aggregate formation to detergent. Inhibition of b-lactamase is measured in the presence and absence of 0.01% Triton X-100. This particular assay had the prescence of 0.01% Triton X-100. See Pubchem assay \"Promiscuous and Specific Inhibitors of AmpC Beta-Lactamase (assay without detergent)\" for related screen. Compounds that inhibit only in the absence of detergent are considered likely promiscuous aggregators. A screen of 1,030 compounds was performed in Brian Shoichet's lab in 96-well format. AmpC activity was measured by following the absorbance at 480 nm. Nitrocefin is a chromogenic substrate: while nitrocefin is yellow (lmax 390 nm), the product of its hydrolysis is red (lmax 486 nm, 17,000 M-1). AmpC beta lactamase was provided by Shoichet Lab, UCSF.\nBuffer: 20 mM phosphate buffer, pH 7.0 Triton X-100: No Detergent screen: 0.0001%, Detergent screen: 0.01%. Reagents/Controls: Buffer in columns 3 and 4 as negative control (no enzyme). 5.3 nM AmpC in columns 1, 2, 5-48. Titration of UCSF compound 9 control (from 10 mM, then 1:2) pin-transferred to column 2. Column 1 is neutral (100% activity). Assay Steps: Six uL of reagents were dispensed to 1536-well Greiner black clear bottom plates. Compounds and controls (23 nL) were transferred via Kalypsys PinTool. The plates were incubated for 15 min at room temperature, and then 2 uL of 800 uM solution of nitrocefin was added to start the reaction. The plates were immediately transferred to and read every 20 seconds for 4 min on ViewLux (Perkin-Elmer) High-throughput CCD imager using 480 nm absorbance protocol. During dispense, reagent bottles were kept submerged into 4 deg C water bath. Keywords: NIH Roadmap, MLSCN, MLI, MLSMR, qHTS, NCGC, AmpC Beta-Lactamase, Aggregation", "values": [{"smiles": "Cc1nc(CNS(=O)(=O)c2ccc3ccccc3c2)cs1", "Potency": "inconclusive [inhibitor, full curve, poor fit]"}, {"smiles": "CCOC(=O)N1CCC(NC(=O)c2ccc3c(c2)sc2nc(-c4cccc(OC)c4)cn23)CC1", "Potency": "inactive"}, {"smiles": "CC1(C)Oc2ccc(NC(=O)c3ccco3)cc2O1", "Potency": "inconclusive [inhibitor, full curve]"}, {"smiles": "CCc1ccc(-n2nnnc2SCC(=O)Nc2ccc(NC(C)=O)cc2)cc1", "Potency": "inconclusive [inhibitor, partial curve, poor fit]"}, {"smiles": "COc1ccc(C(=O)Nc2ccc3ncccc3c2)cc1", "Potency": "inactive"}, {"smiles": "COc1ccc(/C=N/OCC(=O)N(Cc2ccccc2)c2ccccc2C(=O)O)cc1", "Potency": "inconclusive [inhibitor, single point]"}, {"smiles": "Cc1nnc(SCC(=O)N(C2CCCCC2)C2CCS(=O)(=O)C2)n1N", "note": "(centres undefined)", "Potency": "inconclusive [inhibitor, partial curve, poor fit]"}, {"smiles": "O=C(CSc1nc(O)c(-c2ccccc2)c(=O)[nH]1)N1CCOCC1", "Potency": "inconclusive [inhibitor, full curve, poor fit]"}, {"smiles": "O=C(CNc1cccc2ccccc12)N/N=C/c1ccc(C(=O)O)cc1", "Potency": "inconclusive [inhibitor, partial curve, poor fit]"}, {"smiles": "CC(C)C(=O)Nc1nnc(S(=O)(=O)N2CCc3ccccc32)s1", "Potency": "inconclusive [inhibitor, full curve]"}, {"smiles": "COc1cc2c(cc1OC)-c1cc(NC3CCCCCCC3)nc(=O)n1CC2", "Potency": "inconclusive [inhibitor, full curve, poor fit]"}, {"smiles": "COCc1cc(C)nc(NCCO)c1C#N", "Potency": "inactive"}, {"smiles": "CCCSCCCNC(=O)Cn1cc2c(n1)CCC(C)C2", "note": "(centres undefined)", "Potency": "inconclusive [inhibitor, full curve, poor fit]"}, {"smiles": "O=C(Nc1nc(-c2ccccn2)cs1)C1CC1", "Potency": "inconclusive [inhibitor, full curve]"}, {"smiles": "O=C(C1CCCN(Cc2ccccc2Br)C1)N1CCCCC1", "note": "(centres undefined)", "Potency": "inconclusive [inhibitor, single point]"}, {"smiles": "Cc1cc(N(CCO)CCO)ccc1N=Nc1cc(F)ccc1F", "Potency": "inactive"}, {"smiles": "Clc1ccc(C2=CSC3=Nc4cccc5cccc(c45)N23)cc1", "Potency": "inconclusive [inhibitor, single point]"}, {"smiles": "Clc1ccc(-c2nnc(COc3ncnc4sccc34)o2)cc1", "Potency": "inconclusive [inhibitor, partial curve]"}, {"smiles": "O=C(On1c(-c2ccccc2)nc2ccccc2c1=O)c1ccco1", "Potency": "inactive"}, {"smiles": "O=C(CCC(=O)NC1CCN(Cc2ccccc2)CC1)NCc1ccco1", "Potency": "inconclusive [inhibitor, partial curve]"}, {"smiles": "CCOC(=O)N1CCc2c(sc3c2c(=O)n(-c2ccc(CC)cc2)c(=O)n3Cc2ccc(F)cc2Cl)C1", "Potency": "inactive"}, {"smiles": "Cc1cc2c(C)cc(=O)[nH]c2cc1NC(=O)CCl", "Potency": "inactive"}, {"smiles": "CC(C(=O)Nc1ccc2c(c1)OCCO2)N1Cc2ccccc2C1=O", "note": "(centres undefined)", "Potency": "inactive"}, {"smiles": "CCc1c(C)nc2ncnn2c1NCCc1ccc(OC)c(OC)c1", "Potency": "inconclusive [inhibitor, single point]"}, {"smiles": "Cc1cc(C(=O)NCCCN2CCOCC2)n(-c2ccccc2)n1", "Potency": "inconclusive [inhibitor, full curve]"}, {"smiles": "COC(=O)c1ccc(COn2c(=O)c(C)[n+]([O-])c3ccccc32)cc1", "Potency": "inconclusive [inhibitor, full curve, poor fit]"}, {"smiles": "Cc1ccc(N2C(=O)CC(Nc3ccccc3)C2=O)cc1", "note": "(centres undefined)", "Potency": "inactive"}, {"smiles": "Cc1ccccc1NC(=O)Cn1nnc(S(=O)(=O)c2ccc(C(C)(C)C)cc2)c1N", "Potency": "inconclusive [inhibitor, partial curve, poor fit]"}, {"smiles": "O=C(Cc1c[nH]c2ccccc12)NCc1cccs1", "Potency": "inconclusive [inhibitor, single point]"}, {"smiles": "COc1cc([N+](=O)[O-])cc([N+](=O)[O-])c1NC(=O)N1CCOCC1", "Potency": "inconclusive [inhibitor, full curve, poor fit]"}, {"smiles": "CCOc1ccc(S(=O)(=O)Nc2ccccc2C(=O)N2CCOCC2)cc1", "Potency": "inconclusive [inhibitor, full curve, poor fit]"}, {"smiles": "COc1ccc(C2C(C(N)=O)=C(C)Nc3nc(-c4ccccc4OC)nn32)cc1OC", "note": "(centres undefined)", "Potency": "inconclusive [inhibitor, single point]"}, {"smiles": "CC(C)OC(=O)CSc1nnc(SCc2cccc3ccccc23)s1", "Potency": "inconclusive [inhibitor, partial curve, poor fit]"}, {"smiles": "O=C(Nc1ccc(Cl)cc1)C1CCN(C(=O)c2cccs2)CC1", "Potency": "inactive"}, {"smiles": "CNc1ccc(C(=O)OCC(=O)NCc2ccc3c(c2)OCO3)cc1[N+](=O)[O-]", "Potency": "inactive"}, {"smiles": "O=c1c2c3c(sc2nc2n1CCC2)CCC3", "Potency": "inconclusive [inhibitor, partial curve]"}, {"smiles": "O=C(Cn1cc([N+](=O)[O-])cn1)NCCc1c[nH]c2ccccc12", "Potency": "inconclusive [inhibitor, single point]"}, {"smiles": "CCOC(=O)N1CCC(NC(=O)c2ccc3c(c2)N(Cc2ccccc2C)C(=O)c2ccccc2S3=O)CC1", "note": "(centres undefined)", "Potency": "inactive"}, {"smiles": "COc1cccc(-n2nnnc2SCC(=O)c2ccc(NC(C)=O)cc2)c1", "Potency": "inactive"}, {"smiles": "COc1ccc(CN=Cc2c(C(F)(F)F)[nH][nH]c2=O)cc1", "Potency": "inactive"}, {"smiles": "CCOC(=O)CSc1nc2ccccc2c(=O)n1-c1ccc(C(=O)NCCOC)cc1", "Potency": "inconclusive [inhibitor, single point]"}, {"smiles": "CCC(/C=C1\\Sc2ccc(OC)cc2N1CC)=C\\c1sc2ccc(OC)cc2[n+]1CCCS(=O)(=O)[O-]", "Potency": "inactive"}, {"smiles": "Cc1cccc(-n2ncc3c2CCCC3NC(=O)C2CCOCC2)c1C", "note": "(centres undefined)", "Potency": "inactive"}, {"smiles": "CCN(CC(=O)Nc1ccccc1OC)C(=O)CCOc1ccc(C(C)(C)C)cc1", "Potency": "inconclusive [inhibitor, full curve, poor fit]"}, {"smiles": "CSc1nc(-c2ccccc2)nc(N2CCN(C)CC2)c1C(C)=O", "Potency": "inconclusive [inhibitor, partial curve]"}, {"smiles": "Cc1ccc(C)c(OCC(=O)N2CCN(Cc3ccc4c(c3)OCO4)CC2)c1", "Potency": "inactive"}, {"smiles": "COc1ccc(-c2nn(CCC(=O)O)cc2/C=N/NC(N)=S)cc1", "Potency": "inactive"}, {"smiles": "Cc1cc(C(=O)N2CCCC(C(=O)c3ccc(Oc4ccccc4)cc3)C2)n[nH]1", "note": "(centres undefined)", "Potency": "inconclusive [inhibitor, partial curve, poor fit]"}, {"smiles": "CCOC(=O)C1=C(C)NC2=C(C(=O)C(C(=O)OCC)C(c3ccc(OC)cc3)C2)C1c1ccccn1", "note": "(centres undefined)", "Potency": "inconclusive [inhibitor, partial curve]"}, {"smiles": "CN1CCN(S(=O)(=O)c2ccc(C(F)(F)F)cc2)C(c2ccccc2)C1", "note": "(centres undefined)", "Potency": "inactive"}, {"smiles": "COc1ccc(S(=O)(=O)N2CCC(C(=O)N3CCCC3)CC2)cc1Cl", "Potency": "inconclusive [inhibitor, partial curve]"}, {"smiles": "Cc1cc(C(=O)COC(=O)c2ccc[nH]c2=O)c(C)n1C", "Potency": "inactive"}, {"smiles": "COc1ccc(-c2cc(C(F)(F)F)nc(SCC(=O)N(C)Cc3cn(C)nc3C)n2)cc1OC", "Potency": "inconclusive [inhibitor, single point]"}, {"smiles": "COc1ccc2c(=O)c(C(=O)NCCc3ccc(OC)c(OC)c3)c[nH]c2c1", "Potency": "inconclusive [inhibitor, partial curve, poor fit]"}, {"smiles": "C/C(CC(=O)Nc1ccc2c(c1)OCCO2)=N\\NC(=O)C(=O)Nc1ccccc1C", "Potency": "inactive"}, {"smiles": "CCOC(=O)COc1ccc(CCNC(C)=O)cc1", "Potency": "inconclusive [inhibitor, full curve, poor fit]"}, {"smiles": "Clc1ccccc1Nc1nc2ccccc2o1", "Potency": "inactive"}, {"smiles": "COc1ccc(CNCc2ccc(F)cc2)c(OC)c1", "Potency": "inconclusive [inhibitor, full curve, poor fit]"}, {"smiles": "O=C(Nc1ccc2c(c1)OCO2)c1ccc(COc2ccc3c(c2)CCC3)o1", "Potency": "inconclusive [inhibitor, full curve, poor fit]"}, {"smiles": "Nc1c(C(=O)N2CCOCC2)sc(=S)n1-c1ccccc1", "Potency": "inconclusive [inhibitor, full curve, poor fit]"}, {"smiles": "NNC(=O)c1cccc(O)c1", "Potency": "inactive"}, {"smiles": "O=C(Nc1cc(Cl)ccc1Cl)c1ccc2c(c1)N(Cc1cccc(Cl)c1)C(=O)c1ccccc1S2=O", "note": "(centres undefined)", "Potency": "inactive"}, {"smiles": "CC(C)(C)NC(=O)c1ccc(Sc2ccccc2)c([N+](=O)[O-])c1", "Potency": "inactive"}, {"smiles": "Cc1nn(C(=O)c2c([N+](=O)[O-])cnn2C)c(C)c1Cl", "Potency": "inconclusive [inhibitor, single point]"}, {"smiles": "CC(=O)c1cccc(NC(=O)C(C)OC(=O)CCN=C2NS(=O)(=O)c3ccccc32)c1", "note": "(centres undefined)", "Potency": "inconclusive [inhibitor, partial curve]"}, {"smiles": "CC(C)N1C(=O)NC2(c3ccccc3)N(C)C(=O)N(C)C12c1ccccc1", "note": "(centres undefined)", "Potency": "inconclusive [inhibitor, partial curve, poor fit]"}, {"smiles": "COc1ccc(/C=C/C(=O)Nc2ccc3nc4n(c(=O)c3c2)CCCC4)cc1OC", "Potency": "inconclusive [inhibitor, partial curve, poor fit]"}, {"smiles": "C#CCOCCOCCOCCNc1nc(N2CCN(C(=O)CCCCCCCCCCNC(=O)[C@H]([C@@H](C)CC)n3cc(CCCCCN)nn3)CC2)nc(N2CCN(C(=O)CCCCCCCCCCNC(=O)[C@H]([C@@H](C)CC)n3cc(CCCCN=C(N)N)nn3)CC2)n1", "Potency": "inactive"}, {"smiles": "CCCn1c2c(c(O)c(C(=O)Nc3nc(C)cs3)c1=O)CCCC2", "Potency": "inconclusive [inhibitor, partial curve, poor fit]"}]}]}
